In PubChem BioAssay AID485344 (National Center for Advancing Translational Sciences (NCATS), 2010) one finds inhibition data, which are given here for 95 compounds.

The campaign covered roughly 340,000 compounds. About 6,900 (2%) were called active. Cut-off read from the data, not from the text of the source: active = inhibition above about 30%; inactive = below that, where a call was filed. The entries are a selection whose mix differs from that of the whole data set. Entries without a call were filed so in the source.

This assay addresses D(2) dopamine receptor (Homo sapiens) (UniProt P14416). Put plainly: HTS Assay for Allosteric Antagonists of the Human D2 Dopamine Receptor: Primary Screen for Antagonists. Note: 0% is about no effect. Conditions: HEK293 TREx D2 cells, calcium flux, dopamine EC80; at 10 µM; stronger effect = higher value. Put shortly: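 In this primary screen, negative modulation is detected by tracking calcium flux after an EC80 dopamine challenge in inducible HEK293 T-REx D2 cells preexposed to test compound for 180 s.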
Sequence of UniProt P14416 (P14416 whole entry, looked up): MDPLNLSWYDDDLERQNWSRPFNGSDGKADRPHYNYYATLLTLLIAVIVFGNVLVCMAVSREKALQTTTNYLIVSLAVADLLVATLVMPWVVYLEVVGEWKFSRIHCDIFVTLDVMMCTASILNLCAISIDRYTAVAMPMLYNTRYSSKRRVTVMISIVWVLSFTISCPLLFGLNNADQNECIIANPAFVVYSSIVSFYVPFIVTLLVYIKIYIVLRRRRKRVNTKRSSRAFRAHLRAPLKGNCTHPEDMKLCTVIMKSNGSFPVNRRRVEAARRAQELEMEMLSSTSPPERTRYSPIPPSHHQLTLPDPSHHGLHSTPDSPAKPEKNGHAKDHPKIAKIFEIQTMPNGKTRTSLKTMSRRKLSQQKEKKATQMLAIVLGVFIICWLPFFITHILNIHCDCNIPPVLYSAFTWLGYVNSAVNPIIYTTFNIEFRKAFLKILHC
A general note: Calcium assays in cells follow changes in intracellular calcium, usually with a dye or a luminescent sensor.
A word on the inhibition: it is the relative decrease from the control value, in per cent. `O=C(c1cn(CCOc2ccc(Cl)cc2)c2ccccc12)C1CCCCC1`: the inhibition turned out to be 6.09%.
With `CC1=C(C(=O)Nc2ccc(F)cc2F)C2(CCCCCC2)OC1=O` the figure was -5.59%; with `O=C(CN1C(=O)C2(SCC(=O)N2c2ccc(F)c(F)c2)c2ccccc21)Nc1ccccc1F` (stereo not given), 9.11%; with `CCOC(=O)c1ccc(N2C(=O)c3n[nH]c(-c4ccco4)c3C2c2ccc(F)cc2)cc1` (stereo not given), 12.9%.
In the case of `COc1ccccc1CNC(=O)C(CC(C)C)N1Cc2ccccc2C1=O` (stereo not given), the inhibition amounted to 9.04%.
As to `O=C(CSc1nccn1Cc1ccc(Cl)cc1)NCc1ccccc1`, the inhibition was -2.17%.
Take `O=C(Nc1ccc(Cl)c(C(F)(F)F)c1)N1CCCC(O)C1` (stereo not given): the inhibition was active: 30.4%.
In the case of `Cc1ccc(C)c(C(=O)COC(=O)CCCC(=O)Nc2cc(C(F)(F)F)ccc2Cl)c1`, the inhibition is 25.7%.
With `Cc1cccc(CC(=O)NCCc2csc(-c3ccc(C(F)(F)F)cc3)n2)c1`, the inhibition was 19.2%.
Regarding `COc1ccc(-c2cc3ccccc3n2CC(O)CN2CCCCC2)cc1` (stereo not given), the inhibition is active: 42.9%.
In the case of `CCOc1ccc(CCNC(=O)c2cnc3sc(N4CCCCCC4)nn3c2=O)cc1`, the inhibition was 3.78%.
In the case of `COc1ccc(OC)c(NC(=O)CN2CCCN(Cc3cc(C)ccc3C)S2(=O)=O)c1`, the inhibition was 2.35%.
In the case of `Nc1nc(NC(=O)/C=C\C(=O)O)nn1-c1ccccc1`, the inhibition is active: 35.5%.
The same measure for `CCOC(=O)Nc1ccc2c(c1)nc(CN1CCCCC1)n2C`: active: 30.8%; for `CN(CC(=O)Nc1ccc(OC(F)(F)F)cc1)C(=O)/C=C/c1cc2c(cc1[N+](=O)[O-])OCO2`: active: 79.9%; for `Cc1cccc2c1-c1sc(C(=O)N3CCN(c4cccc(Cl)c4)CC3)cc1CO2`: -1.67%.
Take `CC(C)OCc1cc(CN2CCN(c3ccccc3)CC2)c(O)c2ncccc12`: the inhibition was 0.475%.
With `COc1ccc(-c2cc(C(F)(F)F)nc(SCC(=O)NCc3ccc(Cl)cc3)n2)cc1` the figure was 4.53%; with `Cc1cc2nc(-c3cccc(NC(=O)COc4ccc(Cl)c(C)c4)c3)oc2cc1C`, 14.4%; with `Cc1cccc(N(C)S(=O)(=O)c2c(C(=O)N3CCCCCC3)c(C)n(C)c2C)c1`, 19.6%.
Regarding `O=C(NCc1ccccc1)C1CCN(S(=O)(=O)c2ccc3[nH]c(=O)ccc3c2)CC1`, the inhibition is 13%.
With `COc1ccc(NC(=O)c2c(NCc3cccc(F)c3)sc3c2CCCC3)c(OC)c1` the figure was -7.37%.
In the case of `Cc1ccc(CNC(=O)CN2CCN(Cc3ccc(F)cc3)C2=O)cc1`, the inhibition worked out at 17.5%.
With `Cc1ccc(Cl)cc1-n1ncc2c(N3CCC(C)CC3)ncnc21` the figure was -21%; with `CCc1nnc(NC(=O)C(C)N2C(=O)C3C4C=CC(C4)C3C2=O)s1` (stereo not given), active: 32.8%.
Turning to `COc1ccccc1NC(=O)C1CCN(S(=O)(=O)c2cn(C)cn2)CC1`, the inhibition is -16.6%.
With `COc1cc(OC)c(CNC2CCCCCC2)cc1Br` the figure was active: 48.7%.
Take `Cc1ccc(N(C(=O)c2snc(C(N)=O)c2N)C(C(=O)NC2CCCC2)c2ccncc2)cc1` (stereo not given): the inhibition is active: 105%.
Take `CCOc1ccc(NC(=O)CN2C(C(=O)OC)=C(c3ccccc3)c3cc(Cl)ccc3S2(=O)=O)cc1`: the inhibition was 11.1%.
With `COC(=O)C1=C(c2ccccc2)c2ccccc2S(=O)(=O)N1CC(=O)Nc1ccc(OC)cc1OC` the figure was -4.18%; with `Cc1cc(=O)[nH]c2nnc(SCc3ccc(Cl)cc3)n12`, -18.9%.
Turning to `CCOc1ccc(Nc2nc(C)c(NC(=O)c3cccc(OC)c3)c(Nc3ccc(OCC)cc3)n2)cc1`, the inhibition stood at 14%.
The same measure for `Cc1ccccc1CSc1nc2cccnc2n1Cc1ccc(C(=O)NC2CC2)cc1`: -2.68%; for `COc1ccc(CNC(=O)C2CCC(CNS(=O)(=O)c3cccs3)CC2)cc1` (stereo not given): 7.07%.
`CCOC(=O)c1ccccc1NC(=O)CSc1cn(CC(=O)N2CCOCC2)c2ccccc12`: the inhibition was 3%.
For the compound `Cc1ccc(N2CCN(S(=O)(=O)c3nnc(NC(=O)c4ccc(C(C)C)cc4)s3)CC2)cc1`, the inhibition amounted to 7.17%.
As to `Cc1ccc(-c2nc(S(=O)(=O)c3ccc(C)cc3)c(N3CCCCCC3)o2)cc1`, the inhibition is -5.54%.
Take `CCN(CC)CCn1c(NS(=O)(=O)c2ccc(C)cc2)nc2ccccc21`: the inhibition was active: 51.4%.
With `CCOc1ccc(NC(=O)Cn2c(=O)cc(C)c3c(C)nn(-c4cccc(Cl)c4C)c32)cc1`, the inhibition worked out at 6.94%.
The same measure for `Cc1cnc(C(=O)Nc2ccc(S(=O)(=O)NCC(C)C)cc2)cn1`: active: 35.8%.
The same measure for `Cn1c(=O)[nH]c(=O)c2c1nc1n2CCN1c1ccccc1`: 22.9%; for `Cc1nn(-c2ccc(N3CCCC3)nn2)c(C)c1CCC(=O)NCc1ccc(OC(C)C)cc1`: -16%.
For the compound `CCOc1ccc(C(=O)N2CCN(CCc3ccccn3)CC2)cc1`, the inhibition is 10.4%.
The same measure for `CCOc1ccc(S(=O)(=O)c2cn(Cc3ccc(OC)cc3)c3ccc(F)cc3c2=O)cc1`: -1%; for `CC(C)c1ccc(NC(=O)CCNS(=O)(=O)c2ccc3c(c2)CCCC(=O)N3)cc1`: 1.84%; for `CCOC(=O)CC(NC(=O)CCc1c(C)nc2ncnn2c1C)c1ccc(OC(C)C)cc1` (stereo not given): -1.38%.
As to `CCOC(=O)C1=C(CN(CC)Cc2ccccc2)NC(=O)NC1c1ccc(OC(C)C)cc1` (stereo not given), the inhibition came to 18.8%.
As to `COc1ccccc1CNC(=O)c1ccc(N2CCCC2)c(NC(=O)NCc2ccc(F)cc2)c1`, the inhibition is -6.54%.
With `CCCCSCCCNC(=O)C1CCN(Cc2nc(-c3cccc(Br)c3)oc2C)CC1` the figure was -5.04%; with `Cn1cc(CN2CCN(c3ccccc3)CC2)c2ccccc21`, active: 80.9%; with `O=C(Cn1ncc2c3ccccc3n(Cc3ccccc3F)c2c1=O)N1CCCCC1`, 15.7%.
In the case of `CC(C)CN(CCCNC(=O)CN1N=C(c2ccccc2)CCC1=O)CC(C)C`, the inhibition was found to be 11.8%.
`CCOc1ccc(CCNC(=O)c2[nH]c3cc(OC)ccc3c2Sc2ccccc2)cc1OCC`: the inhibition amounted to 12.9%.
`CC(=O)c1cc2c(cc1NC(=O)c1cnn(-c3ccc(C)cc3)c1-n1cccc1)OCO2`: the inhibition is 7.42%.
Regarding `O=C(NCCC1=CCCCC1)c1ccc2c(c1)N(Cc1cccc(Cl)c1)C(=O)c1ccccc1S2(=O)=O`, the inhibition turned out to be 12.2%.
Take `COc1ccc(N2CCN(c3ccc(-c4nc(-c5cccc(C)c5)no4)cc3[N+](=O)[O-])CC2)cc1`: the inhibition worked out at 13.6%.
For `COc1ccc(OC)c(S(=O)(=O)N2CCN(c3c(C)cccc3C)CC2)c1`, the inhibition is active: 35.7%.
With `Cc1cc(C)c(NC(=O)CSc2nc(-c3ccc(F)cc3)nc3c2Cc2c(CO)cnc(C)c2O3)c(C)c1`, the inhibition was found to be 10.2%.
Turning to `CCOc1cc(C)c(Cl)cc1S(=O)(=O)N(C)C`, the inhibition is active: 48.7%.
Take `CCN1CCN(c2nc3ccccn3c(=O)c2/C=C(\C#N)S(=O)(=O)c2ccccc2)CC1`: the inhibition was active: 33.6%.
For the compound `COc1ccc(S(=O)(=O)N(CC(=O)Nc2cccc(C)c2)c2ccc(C)cc2)cc1OC`, the inhibition is 4.04%.
In the case of `CC1CCN(S(=O)(=O)c2ccc3c(c2)N(CC(=O)O)C(=O)CO3)CC1`, the inhibition stood at 4.06%.
With `CCOC(=O)c1ccccc1NC(=O)N1CCOc2ccc(Cl)cc21` the figure was 8.99%.
On to `OC1CCN(Cc2ccc3ccccc3c2)CC1`, for which the inhibition is active: 45.6%.
As for `Cc1cc(Cl)ccc1NC(=O)C1CCN(c2nnc(-n3c(C)ccc3C)s2)CC1`, the inhibition was -5.04%.
As to `COc1ccc(-c2cc(C(F)(F)F)n3nc(C(=O)NCC45CC6CC(CC(C6)C4)C5)cc3n2)cc1OC`, the inhibition was -8.04%.
As to `CCc1ccccc1NC(=O)CSc1nc2c(oc3ccccc32)c(=O)n1-c1ccccc1F`, the inhibition was -4.21%.
Turning to `CC(=O)Nc1ccc(-c2nnc(SCC(=O)c3ccc([N+](=O)[O-])cc3)o2)cc1`, the inhibition stood at 0.488%.
As for `Cc1ccc2ccc3cc(C(=O)N4CCN(c5ccccc5)CC4)nc3c2[nH]1`, the inhibition amounted to 6.68%.
On to `COc1ccc(CCN(C)CC(O)COc2ccc(C(C)=O)cc2OC)cc1OC` (stereo not given), for which the inhibition was active: 36%.
Regarding `Cc1ccc(NC(=O)C(=O)NCC(c2cccnc2)N2CCN(Cc3ccccc3)CC2)cc1` (stereo not given), the inhibition came out at 0.307%.
Turning to `O=S(=O)(NCc1ccccc1Cl)c1ccc(N2CCCCS2(=O)=O)cc1`, the inhibition turned out to be 6.55%.
With `CCCCN(C)CCNC(=O)c1ccc2c(c1)NC(=O)CN2`, the inhibition is -19.9%.
Regarding `Cc1cccn2c(=O)c3cc(C(=O)N(Cc4ccccc4)C(C)C)sc3nc12`, the inhibition worked out at 13.4%.
`Cc1c(C(=O)NCCc2ccc(S(N)(=O)=O)cc2)sc2nc3n(c(=O)c12)CCCC3`: the inhibition is 9.1%.
Turning to `Fc1ccccc1-n1ncc2c1ncn1nc(Cc3ccccc3)nc21`, the inhibition is 8.47%.
Turning to `Cc1ccccc1NC(=O)CN(c1ccc(Cl)cc1Cl)S(=O)(=O)c1ccccc1`, the inhibition was found to be 5.69%.
`Cc1cn(C)c(CC(=O)N2CCN(c3ccccc3F)CC2)c1C(=O)O`: the inhibition is -11.1%.
On to `COc1ccc(-c2nc3sc(CCNC(=O)c4ccccc4C)c(C)n3n2)cc1`, for which the inhibition was -23.5%.
With `CC(CNC(=O)CCS(=O)(=O)c1ccc2c(c1)oc(=O)n2C)c1ccccc1` (stereo not given) the figure was -0.937%.
`Cc1ccc2c(c1)-c1c(c(C(=O)N3CCN(c4cc(Cl)ccc4C)CC3)nn1C)CS2`: the inhibition came to 5.06%.
As for `COc1ccc(OC)c(S(=O)(=O)N2CC=C(c3c(C)n(CC(=O)N4CCCC4)c4ccccc34)CC2)c1`, the inhibition is -7.24%.
As for `CCOc1ccc(C2C(C(=O)Nc3ccc(Cl)cc3)=C(C)Nc3nc(C(F)(F)F)nn32)cc1` (stereo not given), the inhibition is -5.05%.
The same measure for `CSCC(C)N1CCC(n2nccc2NC(=O)c2ccc3c(c2)OCO3)CC1` (stereo not given): active: 58.3%; for `O=S(=O)(c1ccc(Cl)cc1)c1nnn2c1nc(N1CCCCC1)c1sccc12`: 14.4%; for `CC(=O)N1CCc2cc(Br)cc(S(=O)(=O)N3CCN(c4cccc(C)c4)C(C)C3)c21` (stereo not given): -2.44%.
Take `COc1ccc(N2CCN(C(=O)CS(=O)(=O)c3cccc4nsnc34)CC2)cc1`: the inhibition turned out to be 27.3%.
The same measure for `CCCCN1CCc2nc(N3CCN(C)CC3)ncc2C1`: -19%.
Take `O=C(NCCc1csc(-c2cccnc2)n1)c1ccc(F)c(F)c1`: the inhibition is -2.98%.
Regarding `Cc1nn(C(C)C(=O)NC2CCC(C)CC2)c(=O)c2cc3sccc3n12` (stereo not given), the inhibition amounted to 1.37%.
As for `CN(C)c1ccc(CNC(=O)CCCn2ccc3cc(S(=O)(=O)N4CCCC4)ccc32)cc1`, the inhibition was 2.45%.
With `COc1ccccc1N1CCN(C(=O)c2cn(C)c3ccc(S(=O)(=O)N4CCOCC4)cc3c2=O)CC1`, the inhibition was -19.5%.
The same measure for `COc1ccc(Cl)cc1NC(=O)c1cc(C)nn1-c1ccccc1`: -8.22%.
With `COc1cccc(N2CCN(S(=O)(=O)c3ccc4c(c3)CCCN4C(C)=O)CC2)c1`, the inhibition was -1.44%.
In the case of `Cc1ccc(Cc2nc3ccccc3nc2SCC(=O)N2CCCCC2C)cc1` (stereo not given), the inhibition is -19.1%.
